# Source: the supplement of paper PMC3334620
# In all, about 33,000 sequences were measured (“E-score (-0.5 to 0.5)”: median about -0.032, highest 2% from about 0.36 on). The list shows a part of the results.
# Biological target: T1, Sko1 (UniProt Q02100)
# T1 sequence: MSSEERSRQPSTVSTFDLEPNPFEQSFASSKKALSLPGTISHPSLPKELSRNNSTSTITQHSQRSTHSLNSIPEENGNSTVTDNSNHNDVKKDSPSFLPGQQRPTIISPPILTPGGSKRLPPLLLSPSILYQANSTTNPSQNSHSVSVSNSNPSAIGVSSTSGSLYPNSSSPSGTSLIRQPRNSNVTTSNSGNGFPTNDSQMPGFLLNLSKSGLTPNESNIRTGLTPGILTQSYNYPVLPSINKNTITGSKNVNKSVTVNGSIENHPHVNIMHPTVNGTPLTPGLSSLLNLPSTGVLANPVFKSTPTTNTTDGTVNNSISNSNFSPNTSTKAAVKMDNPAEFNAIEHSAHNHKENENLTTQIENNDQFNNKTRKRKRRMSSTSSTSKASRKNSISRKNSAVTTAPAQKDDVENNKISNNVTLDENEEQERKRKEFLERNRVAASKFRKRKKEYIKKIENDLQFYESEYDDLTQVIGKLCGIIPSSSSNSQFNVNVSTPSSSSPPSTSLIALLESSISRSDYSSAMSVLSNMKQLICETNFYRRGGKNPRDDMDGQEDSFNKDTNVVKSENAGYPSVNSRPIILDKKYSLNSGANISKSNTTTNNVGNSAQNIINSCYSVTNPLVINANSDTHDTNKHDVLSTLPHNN
# Test: PBM E-score (8-mer binding enrichment) (E-score (-0.5 to 0.5)); higher = stronger / more preferred TF binding; most listed sequences are background and not binding sites
# Conditions: protein concentration: 200 nM; construct: GST-full length
# Procedure, shortened: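 Yeast transcription factors, full-length or as DNA-binding domains, were expressed with a GST tag using PURExpress in vitro transcription/translation. At about 100-200 nM they were applied to universal all-10-mer Agilent arrays, double-stranded by primer extension on fresh or once-stripped slides. Fluorescent anti-GST detected bound protein, and masliner normalised the scans. E-scores for ungapped eight-base words, pooled with reverse complements, came from the Universal PBM Analysis Suite.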
row,Sequence,PBM E-score
1,AACGTATT,0.434
2,GGGGAGAC,-0.304
3,CTTCACGC,0.135
4,CTCCCGAA,-0.2
5,ATCCACTA,-0.0731
6,CACAGTGC,-0.182
7,AACTCAGA,0.0435
8,AAAATGCA,-0.182
9,CCTTTCCG,-0.344
10,AACGTGAT,0.333
11,CCATGGCG,0.14
12,CCGATTGA,-0.0362
13,CCAAAATC,0.0792
14,AAATTTTA,0.145
15,GCGCCACA,-0.00247
16,AGACGCCC,-0.334
17,ATGTGCCA,-0.087
18,AATTACAG,0.113
19,CCTATCCC,-0.103
20,CTTAAAGC,0.111
21,ATCCTGAG,-0.0175
22,CCACTGGA,-0.0322
23,TAAAGGGA,-0.174
24,AGATACGG,-0.0609
25,AAGTCCGA,-0.2

row,Sequence,PBM E-score
1,GATATAGC,0.0879
2,CAATCGAA,0.115
3,CAAGCCCA,-0.0739
4,TAGAGGCA,-0.0989
5,GTTTCTCA,0.039
6,AACTGGTG,-0.118
7,CACCATCA,0.0665
8,AAGCTGGA,-0.179
9,CTCATGGA,-0.0682
10,ATCCAATG,-0.0792
11,AAGAGACC,-0.14
12,GGGATGTA,-0.0517
13,GGGGAAAC,-0.124
14,GTATTGAC,0.171
15,ACGACCGA,0.0721
16,GACACTCC,0.0265
17,CCAGGAGC,-0.294
18,GACACATC,0.0719
19,AAGAGCCA,-0.055
20,CCTTTTAA,-0.0185
21,CTGCGATA,-0.029
22,CAAGCCGC,-0.343
23,ATTGCATG,0.138
24,GCTTTGTA,0.11
25,CCCTGCCC,-0.263

row,Sequence,PBM E-score
1,ACTTTGAG,-0.019
2,AGTAAATG,0.072
3,AACGATCC,-0.229
4,ACGGTACA,-0.095
5,CAGTCCTC,-0.279
6,ATCCCGTC,-0.00164
7,AATGGTCG,-0.165
8,AAGGGGGT,-0.233
9,TCATGAGA,0.211
10,CAAAGGAG,-0.108
11,CATGACGA,0.463
12,ATAAAGAG,0.0845
13,AAACGTGT,0.288
14,GACGGCCA,-0.3
15,GCGCCGTA,0.0251
16,CACTGATG,0.0771
17,ATAAGTCA,0.0807
18,ACTTATAA,0.123
19,TCTGAGAA,-0.0207
20,CAAGCCCG,-0.146
21,ATCGCGAG,0.0864
22,AGTAGCAG,-0.0686
23,GAAGTTAC,0.0658
24,CCAATACA,-0.00684
25,GATTGTAC,0.0187

row,Sequence,PBM E-score
1,TACCAGCA,0.044
2,ATCATTCG,0.234
3,CACCATAA,0.107
4,GGGAGCAC,-0.174
5,GTATTTTA,0.278
6,AGGTGTGG,-0.289
7,ACCTGTGA,0.115
8,GTCTAGGA,0.0381
9,AGATGGCG,0.136
10,ACGCAGTA,0.218
11,GGATGTCA,0.097
12,CCGTGAGA,-0.184
13,CTCTGCTA,-0.23
14,ATGCTCAA,-0.108
15,CACGTTTC,0.155
16,ATCACTGG,0.0306
17,ATCTTGCG,0.0317
18,GGACACAA,-0.09
19,CAGTCGCG,-0.125
20,CCTACCAC,-0.164
21,ATAGCGGG,-0.0716
22,CATCATAG,0.361
23,ATGGGAAC,-0.145
24,CCCTATCG,-0.21
25,ATTCCGAA,-0.00997

row,Sequence,PBM E-score
1,ACTTAGTC,-0.15
2,CACGGAAC,0.091
3,CGTCCTTC,0.176
4,TCTAGCAA,-0.054
5,CGTATAGA,0.311
6,AGAAAGGC,-0.024
7,GCATCTAA,-0.0199
8,ACTTAAAT,0.0342
9,ACTGTAAG,0.137
10,GTGTTAAC,0.149
11,TCGTAGCA,0.217
12,CGCCCACC,-0.112
13,TATAGTGA,0.102
14,GGAGAGAC,-0.272
15,GCCCTACA,-0.221
16,ACTTAGAC,0.213
17,ATAAAGAT,0.215
18,AGCTTGTA,-0.0377
19,CTATGCGC,0.0382
20,AGCTCCTA,-0.231
21,TCTCGCAA,-0.114
22,GAGCATCA,-0.114
23,GAGGGCTA,-0.183
24,TCTGATCA,0.0333
25,CAACCTTC,-0.0611

row,Sequence,PBM E-score
1,AGTAAGCA,-0.0305
2,GCTTTTCC,-0.0604
3,ACTTTGAT,0.0376
4,GAGTGTTA,0.0704
5,AAAGTACA,0.175
6,AGCCGTCC,-0.129
7,ACATCCAC,0.0782
8,GGTGCTGA,-0.195
9,AAAAATAG,0.0997
10,AATGGTAC,0.0378
11,CGGCAAGA,-0.0449
12,ACGGTGCT,-0.193
13,CCGGGTCG,-0.0548
14,GGCACTAA,-0.0862
15,ACCGGATG,-0.166
16,AGGATGAT,0.26
17,CGACGCGA,0.0277
18,GGCTCAGA,-0.118
19,GGCATCCC,-0.422
20,CCACACAA,-0.082
21,CGTGGTGA,0.184
22,ACTAGCAA,0.0923
23,CATCCAGA,-0.133
24,AGCCCACT,-0.215
25,ACCCGATA,-0.09

row,Sequence,PBM E-score
1,CGGCGCGA,-0.131
2,GCTGGTAC,-0.131
3,CCACGCCA,0.172
4,CTTGTAGC,-0.0155
5,ACGCGGAC,-0.0648
6,GTCGTAGA,0.166
7,AGCCCCCT,-0.233
8,AGTACCTG,-0.0457
9,CCATTCTA,0.0212
10,ACTTCGTG,0.104
11,ACGCGGCT,0.124
12,AGCTACAT,0.0638
13,CGAAAATC,0.257
14,TATCGTCA,0.42
15,CGAGATCA,-0.0979
16,CATTGCCA,0.0619
17,CCACTCCA,-0.23
18,CTTCGGGA,-0.224
19,CCGCGTGA,0.00382
20,TCAAGCAA,-0.0777
21,AGCCGACG,-0.132
22,AAGCGATT,0.143
23,CCATAGTC,-0.0986
24,ACAATGGT,-0.00162
25,GAATGGTC,-0.166

row,Sequence,PBM E-score
1,ACCTGTAC,-0.0558
2,AACCCCAA,0.0585
3,ATTCCAGG,-0.12
4,AGACCTCG,-0.0735
5,CCCGTCCA,-0.131
6,GATAAGTA,0.00048
7,GATCCGCA,-0.246
8,CCCGCATC,-0.231
9,CCTGACAA,-0.052
10,CGAACGAC,-0.0145
11,CCAGGGTC,-0.285
12,TACGGCAA,0.0731
13,AGGCTGTC,-0.22
14,CATGCGGG,-0.212
15,AGGCGGGA,-0.225
16,CAAGCGTC,0.0646
17,ATGGCTAC,0.105
18,GAGACATC,-0.225
19,GACTACTA,0.0848
20,CTATAAGC,-0.0749
21,AAGAAAAT,0.292
22,CAGGTACG,0.0561
23,CGCAATCA,0.217
24,GCTGCGTA,0.308
25,GCGCGGAA,-0.103

row,Sequence,PBM E-score
1,CAGGTGTA,-0.0716
2,GAAGGGCC,-0.194
3,GTCCAATA,0.0512
4,GAGACGCA,0.0284
5,CAGTGAAC,0.0558
6,GTAACCAA,0.132
7,ACTTTCAA,0.0541
8,GATAAGAC,-0.0439
9,GACGTAAA,0.456
10,GCCTGCGC,-0.32
11,ACACCGGA,-0.136
12,GAGGAAAC,-0.213
13,CAGTGGGG,-0.218
14,ACCAGGCC,0.103
15,TAAATCGA,0.214
16,CCCGCTAA,-0.328
17,AACAGATA,0.169
18,ACCTATAA,0.0683
19,ATCGAGTC,-0.102
